Laboratory results published in the supplement of paper PMC10441789.
This is one part of the list. Antibody binding of pooled human sera (four to six donors per pool; dilution not stated) to peptides of the Trypanosoma cruzi antigen TSSA on microarrays. Quantile-normalised fluorescence in arbitrary units, mean of duplicate arrays; higher = more binding. No active / inactive call. The uninfected pools are read here as the healthy donors of the same country. The strongest signals lie near the top of the scale (about 60,000).

tested on: pooled sera of uninfected people, Colombia; experiment: antibody binding signal (normalised fluorescence) (arbitrary fluorescence units); higher = stronger serum antibody binding to peptide
Method: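 Microarray of 15-residue peptides over residues 30-55 of Trypanosoma cruzi TSSAII, each with 1 to 10 substitutions at naturally variable positions, probed with one serum pool per country.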

Row | Sequence | antibody binding signal
1 | SGTDNKTATGEAPSQ | 195
2 | KENKPATGGTPSPSG | 167
3 | GTENKPATGGTPSQS | 318
4 | GKDNKPATGGTPSPP | 308
5 | SGTDNKPATGGAPSQ | 244
6 | KTATGGTPSQSGASS | 112
7 | TPPSGKENKTATGEA | 627
8 | NKPATGEAPSPSGAS | 304
9 | PSGKENKTATGEAPS | 1080
10 | DNKPATGEAPSQSGA | 147
11 | TENKPAAGGTPSQPG | 522
12 | STPPSGTEKKAATGG | 588
13 | TENKTATGEAPSPSG | 177
14 | TPPSGKEKKTATGEA | 342
15 | KAATGETPSPPGASS | 161
16 | ENKAAAGETPSPSGA | 86.5
17 | SGKEKKPAAGGAPSQ | 103
18 | KENKPAAGGTPSPSG | 201
19 | TISTPPSGKENKAAA | 814
20 | KEKKAAAGETPSQPG | 179

Row | Sequence | antibody binding signal
21 | TDNKPAAGGTPSQSG | 434
22 | TEKKAAAGEAPSQPG | 124
23 | PPSGTENKTATGGTP | 695
24 | SGKEKKTATGGTPSP | 158
25 | NKTAAGGTPSQPGAS | 504
26 | KAATGGTPSPPGASS | 222
27 | TEKKTATGETPSPSG | 154
28 | SGTEKKAAAGEAPSQ | 110
29 | ENKPAAGETPSQSGA | 240
30 | NKTAAGEAPSQSGAS | 255
31 | KENKTATGGAPSQSG | 100
32 | TPPSGTENKTATGGA | 517
33 | ENKTAAGETPSQSGA | 126
34 | KKAAAGEAPSQPGAS | 139
35 | PPSGTDNKTATGEAP | 332
36 | DKKAAAGGAPSQPGA | 137
37 | DKKPATGEAPSQPGA | 298
38 | GTDNKAAAGETPSQP | 143
39 | GTDNKTATGGTPSQP | 189
40 | GKEKKTATGGAPSQP | 86.2
